Cell count data for 11 compounds are collected here from the supplement of paper PMC4604168 (melanoma cell lines).

The other results are listed elsewhere or left out. Repeats are few or missing, and single values can be far off.
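Further: cells treated in 1,536-well plates, then fixed and DAPI-stained, with nuclei counted from automated high-throughput microscope images.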

This assay concerns IPC-298. The experiment in a line: cell count relative to DMSO control; melanoma cells; higher = more viable cells. To be noted: library dose: standard library concentration; 72 h.
For the compound `Nc1ncn([C@H]2C[C@H](O)[C@@H](CO)O2)c(=O)n1` [decitabine] + C#Cc1cccc(Nc2ncnc3cc(OCCOC)c(OCCOC)cc23)c1 [erlotinib] (first compound 0.5 µM, partner dose 4 µM), the cell count stood at 39.9%.
`CC(=O)O[C@@]12CO[C@@H]1C[C@H](O)[C@@]1(C)C(=O)[C@H](O)C3=C(C)[C@@H](OC(=O)[C@H](O)[C@@H](NC(=O)OC(C)(C)C)c4ccccc4)C[C@@](O)([C@@H](OC(=O)c4ccccc4)[C@H]21)C3(C)C` [Docetaxel] + OCc1c[nH]c2ccccc12 [Indole-3-carbinol] (first compound 0.0005 µM, partner dose 4 µM) gave a cell count of 31.5%.
Under `CO[C@H]1C[C@@H]2CC[C@@H](C)[C@@](O)(O2)C(=O)C(=O)N2CCCC[C@H]2C(=O)O[C@H]([C@H](C)C[C@@H]2CC[C@@H](OCCO)[C@H](OC)C2)CC(=O)[C@H](C)/C=C(\C)[C@@H](O)[C@@H](OC)C(=O)[C@H](C)C[C@H](C)/C=C/C=C/C=C/1C` [everolimus] + COc1cc(Nc2ncc(F)c(Nc3ccc4c(n3)NC(=O)C(C)(C)O4)n2)cc(OC)c1OC [Tamatinib] (first compound 0.1 µM, partner dose 2 µM) stands 78.1%; under `Nc1ncn([C@H]2C[C@H](O)[C@@H](CO)O2)c(=O)n1` [decitabine] + CN(C)S(=O)(=O)c1ccc2c(c1)/C(=C/c1cc3c([nH]1)CCCC3)C(=O)N2 [SU6656] (first compound 0.5 µM, partner dose 2 µM), 53.5%; under `CO[C@H]1C[C@@H]2CC[C@@H](C)[C@@](O)(O2)C(=O)C(=O)N2CCCC[C@H]2C(=O)O[C@H]([C@H](C)C[C@@H]2CC[C@@H](OCCO)[C@H](OC)C2)CC(=O)[C@H](C)/C=C(\C)[C@@H](O)[C@@H](OC)C(=O)[C@H](C)C[C@H](C)/C=C/C=C/C=C/1C` [everolimus] + COc1cc2ncnc(Nc3ccc(Oc4ccccc4)cc3)c2cc1OC [SrcI1] (first compound 0.1 µM, partner dose 10 µM), 56.2%.
Regarding `CO[C@H]1C[C@@H]2CC[C@@H](C)[C@@](O)(O2)C(=O)C(=O)N2CCCC[C@H]2C(=O)O[C@H]([C@H](C)C[C@@H]2CC[C@@H](OCCO)[C@H](OC)C2)CC(=O)[C@H](C)/C=C(\C)[C@@H](O)[C@@H](OC)C(=O)[C@H](C)C[C@H](C)/C=C/C=C/C=C/1C` [everolimus] + COc1ccc(-c2ccc3c(N4CCOCC4)nc(N4C[C@@H](C)O[C@@H](C)C4)nc3n2)cc1CO [KU0063794] (first compound 0.1 µM, partner dose 0.1 µM), the cell count was 50.9%.
Under `CC(=O)c1c(C)c2cnc(Nc3ccc(N4CCNCC4)cn3)nc2n(C2CCCC2)c1=O` [palbociclib] + COc1ccc(Cl)c(Nc2nc3ccccc3nc2NS(=O)(=O)c2cccc(NC(=O)C(C)(C)N)c2)c1 [XL147] (first compound 0.2 µM, partner dose 4 µM) stands 67.9%; under `CC(=O)c1c(C)c2cnc(Nc3ccc(N4CCNCC4)cn3)nc2n(C2CCCC2)c1=O` [palbociclib] + COc1ccc2c(c1)CCC1C2CCC2(C)C(NCCCCCCN3C(=O)C=CC3=O)CCC12 [U73122] (first compound 0.2 µM, partner dose 2 µM), 109%; under `Nc1ccn([C@@H]2O[C@H](CO)[C@@H](O)C2(F)F)c(=O)n1` [gemcitabine] + CO[C@@H]1[C@H](N(C)C(=O)c2ccccc2)C[C@H]2O[C@]1(C)n1c3ccccc3c3c4c(c5c6ccccc6n2c5c31)C(=O)NC4 [Midostaurin] (first compound 0.002 µM, partner dose 0.4 µM), 30.5%.
With `Nc1ccn([C@@H]2O[C@H](CO)[C@@H](O)C2(F)F)c(=O)n1` [gemcitabine] + Cc1nc(Nc2ncc(C(=O)Nc3c(C)cccc3Cl)s2)cc(N2CCN(CCO)CC2)n1 [dasatanib] (first compound 0.002 µM, partner dose 0.02 µM) the figure was 53.1%; with `CC(=O)O[C@@]12CO[C@@H]1C[C@H](O)[C@@]1(C)C(=O)[C@H](O)C3=C(C)[C@@H](OC(=O)[C@H](O)[C@@H](NC(=O)OC(C)(C)C)c4ccccc4)C[C@@](O)([C@@H](OC(=O)c4ccccc4)[C@H]21)C3(C)C` [Docetaxel] + Cc1cc(Nc2cc(N3CCN(C)CC3)nc(/C=C/c3ccccc3)n2)n[nH]1 [ENMD2076] (first compound 0.0005 µM, partner dose 0.2 µM), 40.8%.
